Among the test systems are O=C(O)CCCO; O=C(O)CCCCC(=O)O; O=C(O)CCCCCO.
Common to all, as to assay: purified protein, by the assay type
Common to all, as to details: pH 7.5

By Km is commonly meant the substrate concentration at which the rate is half of its maximum. As a reminder, the kcat is the maximal rate divided by the concentration of active sites. The kcat/Km is the turnover number divided by the Michaelis constant. On to “Mycobacterium abscessus carboxylate reductase MAB_4714c, SEQ ID NO: 36 (Mycobacteroides abscessus ATCC 19977)”, for which, in the data set on O=C(O)CCCO, the Km was determined as 26.52 ± 1.77 mM, the kcat stood at 1.88 ± 0.052 s⁻¹ and the kcat/Km came out at 70.8 ± 1.96 M⁻¹ s⁻¹. Also, in the data set on O=C(O)CCCCC(=O)O, the Km is 35.87 ± 2.68 mM, the kcat stood at 3.21 ± 0.11 s⁻¹ and the catalytic efficiency (kcat/Km) was found to be 89.5 ± 3.07 M⁻¹ s⁻¹. In the data set with O=C(O)CCCCCO, the Km is 2.64 ± 0.13 mM, the kcat worked out at 2.62 ± 0.03 s⁻¹ and the kcat/Km turned out to be 995 ± 13 M⁻¹ s⁻¹.

The record behind these values is patent US12371675B2, “Process and microorganism for synthesis of adipic acid from carboxylic acids” (THE GOVERNING COUNCIL OF THE UNIVERSITY OF TORONTO, priority 2015, dated 2025).
